Over roughly 33,000 sequences, “E-score (-0.5 to 0.5)” has its median near -0.041; the highest 2% begin near 0.37. Some of the results follow.
Molecular target: T1, Ecm22 (UniProt Q05958)
T1 sequence: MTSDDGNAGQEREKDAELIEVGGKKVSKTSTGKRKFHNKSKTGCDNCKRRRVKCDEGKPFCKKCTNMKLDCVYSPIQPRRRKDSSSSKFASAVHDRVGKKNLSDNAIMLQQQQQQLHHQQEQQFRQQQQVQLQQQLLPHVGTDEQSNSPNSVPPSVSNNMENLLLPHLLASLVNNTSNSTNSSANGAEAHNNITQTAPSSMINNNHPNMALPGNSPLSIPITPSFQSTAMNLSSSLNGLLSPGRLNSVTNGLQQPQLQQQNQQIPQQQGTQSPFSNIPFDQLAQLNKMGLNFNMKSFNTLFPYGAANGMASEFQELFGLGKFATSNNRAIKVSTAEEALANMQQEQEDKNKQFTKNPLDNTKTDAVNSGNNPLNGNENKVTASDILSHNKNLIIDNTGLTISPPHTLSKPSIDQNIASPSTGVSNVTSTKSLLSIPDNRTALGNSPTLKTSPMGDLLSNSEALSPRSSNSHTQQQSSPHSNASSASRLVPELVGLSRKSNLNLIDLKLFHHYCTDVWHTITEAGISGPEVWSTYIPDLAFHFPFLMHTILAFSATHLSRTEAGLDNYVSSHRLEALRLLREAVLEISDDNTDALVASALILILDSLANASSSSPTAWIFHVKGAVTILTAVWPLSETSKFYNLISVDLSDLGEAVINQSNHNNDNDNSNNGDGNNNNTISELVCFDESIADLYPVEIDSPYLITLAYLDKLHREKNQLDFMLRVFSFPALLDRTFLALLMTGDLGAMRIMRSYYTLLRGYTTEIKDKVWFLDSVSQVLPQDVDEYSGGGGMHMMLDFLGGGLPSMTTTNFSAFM
Experiment: PBM E-score (8-mer binding enrichment) (E-score (-0.5 to 0.5)); higher = stronger / more preferred TF binding; most listed sequences are background and not binding sites
Settings: protein concentration: 200 nM; construct: GST-full length
In short: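 Using PURExpress in vitro transcription/translation, GST-tagged yeast transcription factors were made in full-length or DNA-binding-domain form. These were applied at about 100-200 nM to double-stranded universal all-10-mer Agilent arrays, and bound protein was detected with fluorescent anti-GST. Scans were normalised with masliner before the Universal PBM Analysis Suite assigned E-scores to ungapped eight-base words pooled with their reverse complements.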

Sequence | PBM E-score
AAGGTTTA | -0.0875
ATCAACTA | 0.096
GCAAAGGA | 0.0841
ACATACCC | -0.105
GAATTGCC | -0.0443
ATATTCCC | -0.034
AAAGCAGA | 0.058
GACCAACC | -0.0568
CAAGAGGA | -0.145
AAGGGTCA | -0.293
ATCTTCTA | 0.0705
CACCCTGC | -0.23
ACGGAAGC | 0.145
TACCTCAA | 0.0468
GCATTCCC | -0.208
ATTATGCA | 0.00826
CCGGGAAA | 0.0379
AAAGCATG | -0.086
GGGAGGGA | -0.062
GATTTGGA | -0.107
CATAAATC | -0.125
GAGTAACA | 0.0615
AATGGGGC | -0.217
AGTGGACC | -0.319
ATGTCCGA | 0.19

Sequence | PBM E-score
CATTAAAC | 0.125
CGATTTAA | -0.0579
CAGGGATG | -0.0987
CTGTAACC | 0.0512
GCTCTCCC | 0.0533
AAAATATT | 0.0299
AATGCATT | -0.0107
ATCCAACG | -0.119
GAATCCAA | -0.16
GACGGGAC | -0.0305
ACCCAGTG | -0.0151
AAGGAAAC | 0.0265
ACACACTA | 0.0728
CGGAGAGA | 0.0699
AGGCGAAA | -0.0372
TAGCGATA | 0.145
CAGGATGG | -0.0588
CAGGTTAC | -0.164
AACCATGA | 0.0773
CATCTTCC | -0.111
ACCGTCGT | 0.404
ACATTGGC | -0.152
CACCGGAC | 0.112
CGGGCGAA | -0.119
GGGCGAAC | -0.0329

Sequence | PBM E-score
GTCGGTTA | 0.369
AAGCGAAC | 0.268
CGCGCTCA | 0.071
ATACGACC | 0.473
CTATTTCA | -0.126
CTGGGCTA | -0.17
AGCGACGG | 0.299
ACGAGCAG | 0.383
CGCCAGGA | -0.205
AAATCATA | 0.196
AAAACACC | -0.212
ACGACAAA | 0.384
ACGTAGCG | 0.27
CTTCAGCC | -0.276
TACCACAA | 0.071
AGCAGGCA | -0.165
TCCTAACA | -0.0844
AGTCGATC | 0.123
AATTGGTA | 0.124
CCATTAGC | -0.0326
GCTGTCTA | -0.0813
CGATTCAG | 0.0769
AAGAGTCT | -0.0637
CAAGGTCG | -0.109
CGAGTTAA | 0.222

Sequence | PBM E-score
CGGGCCTC | -0.0452
CACTGAAG | -0.175
ATGGGCCC | -0.157
CAACGGAC | -0.0366
AGGGCGTC | -0.0399
CTTCGTGC | 0.0216
TCCCGACA | 0.0279
AATAAGAA | -0.0401
AGACTTCA | -0.115
GTCCTCTA | -0.181
AAAGAATA | -0.0162
GGCGACTA | -0.0711
CTCAATCC | -0.0357
TAGCCTCA | -0.138
ACGCCAGC | 0.0291
ATTTTACA | -0.028
CTCCCCTA | -0.0506
CGCCGCAG | -0.188
CGCTTGCA | -0.00412
ACAGTCCC | -0.262
TAGGGGAA | -0.133
GCATGCAC | -0.133
CCGAATCA | 0.0958
GCCATTAA | -0.0291
GCGTTATA | 0.0325

Sequence | PBM E-score
GACTCCCA | -0.0874
CACATCAA | 0.0831
TACGTGCA | 0.107
CATGGGTC | -0.278
AGCTCTAG | -0.186
GAATCAAC | 0.219
GACACGAA | 0.126
GGGTCGTA | 0.439
ACCCCATA | -0.242
CCTTGAAG | -0.198
AGAAGGAT | -0.29
AGTTCACA | 0.00229
AGGTTAGA | -0.186
TCAATCAA | 0.0397
CTCAGGCC | -0.149
CGTGCCTA | -0.232
CGTATATC | 0.439
ACCGCAAC | 0.152
ATCCCCCC | -0.383
CGCCAGGC | -0.0299
ACTCCGCT | -0.0723
AGTACTCG | 0.277
CTTTTCCA | -0.271
AAACGGCT | 0.259
AAGTGAAG | -0.137

Sequence | PBM E-score
ATGGAGTG | -0.27
ACTATCAT | 0.134
ATGGTGGC | -0.363
AAAAGTGA | -0.25
GGAACGGA | 0.435
GAGTCATA | -0.0541
ATATTTAC | 0.234
CGCCTAGC | -0.28
GCACGCAA | 0.113
AGTAACAA | -0.0844
CGCCTACA | -0.131
CTACAGAG | -0.0143
GGAATATA | 0.0365
TATGTAGA | -0.119
AGATGAGC | -0.0782
CATGCAAG | -0.292
CCGAGCTA | 0.101
CACGAGGA | 0.196
GAGATCTC | 0.244
ATCCTGTA | -0.00044
AGCAAATG | -0.159
TAGAGACA | -0.127
GGCATTAC | -0.132
CGCGTCAA | 0.0655
ATCGTGAG | -0.137

Sequence | PBM E-score
ATACTAAA | 0.228
AGCCAAAC | -0.0307
CGAATCTC | 0.172
CTGCGTCC | -0.182
CAATCGGG | -0.0665
GGCTTTAA | -0.0872
ATGCGAGA | 0.302
ACGACGCC | 0.33
CCGCTGCC | -0.146
CAAATACC | -0.146
CACCGTGG | -0.115
CAGTCCGC | -0.119
AGCTAAAG | -0.064
GGCTGCGA | 0.0236
CATCAAAG | -0.299
AAACTATA | 0.0413
AAACCTTA | 0.0879
ACTACGTG | -0.118
GGAGTCGA | -0.0423
CGTACGAC | 0.444
CAGATCAC | -0.256
CGTAATTA | 0.179
